Test results reported in the supplement of paper PMC12217912.
Some of the results follow. The full chains were built here from the parent and the listed change. Values near 0.05 are background.

B1: TEV protease; numbered along this chain (parent)
chain: MGESLFKGPRDYNPISSSICHLTNESDGHTTSLYGIGFGPFIITNKHLFRRNNGTLVVQSLHGVFKVKDTTTLQQHLVDGRDMIIIRMPKDFPPFPQKLKFREPQREERICLVTTNFQTKSMSSMVSDTSCTFPSGDGIFWKHWIQTKDGQCGSPLVSTRDGFIVGIHSASNFTNTNNYFTSVPKNFMELLTNQEAQQWVSGWRLNADSVLWGGHKVFMVKPEEPFQPVKEATQL

Variants of: B1
Test: raw area under fraction-flipped curve 0-4 h after induction (AUC4h, not background-subtracted), DNA-recorder readout of cleavage of the substrate (dimensionless); higher = more cleavage of the substrate by the protease variant
Conditions: temperature: 34 °C; time window: 0-4 h after rhamnose induction
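Further: Bxb1 expression induced with 0.2% (w/v) L-rhamnose at OD600 near 0.5, cultures sampled hourly, flipped fraction per protease–substrate barcode pair counted by paired-end Illumina sequencing.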

Variant	area with substrate ENEYFQS	area with substrate ENFYFQS	area with substrate ENGYFQS	area with substrate ENHYFQS	area with substrate ENIYFQS	area with substrate ENKYFQS	area with substrate ENMYFQS	area with substrate ENNYFQS	area with substrate ENSYFQS	area with substrate ENTYFQS	area with substrate ENVYFQS	area with substrate ENWYFQS	area with substrate ENQYFQS	area with substrate ENYYFQS
MGESLFKGPRDYNPISSSICHLTNESDGHTTSLYGIGFGPFIITNKHLFRRNNGTLVVQSLHGVFKVKDTTTLQQHLVDGRDMIIIRMPKDFPPFPQKLKFREPQREERICLVTTNFQTKSMSSMVSDTSCTFPSGDGIFWKHWIQTKDGQCGSPLVSTRDGFIVGIHSASNFTNTNNYFTSVPKNNMELLTNQEAQQWVSGWRLNADSVLWGGHKVFMVKPEEPFQPVKEATQL [F187N]	0.0509	0.0537	0.0501	0.0622	0.0488	0.0464	0.0515	0.0469	0.0513	0.0808	0.0804	0.0527	–	–
MGESLFKGPRDYNPISSSICHLTNESDGHTTSLYGIGFGPFIITNKHLFRRNNGTLVVQSLHGVFKVKDTTTLQQHLVDGRDMIIIRMPKDFPPFPQKLKFREPQREERICLVTTNFQTKSMSSMVSDTSCTFPSGDGIFWKHWIQTKDGQCGSPLVSTRDGFIVGIHSASNFTNTNNYFTSVPKNFMELLTNQEAQQWVSGWRLNADSVVWGGHKVFMVKPEEPFQPVKEATQL [L211V]	0.0568	0.0629	–	–	–	–	–	–	–	0.0559	0.0835	–	0.0551	0.0718
MGESLFKGPRDYNPISSSICHLTNESDGHTTSLYGIGFGPFIITNKHLFRRNNGTLVVQSLHGVFKVKDTTTLQQHLVDGRDMIIIRMPKDFPPFPQKLKFREPQREERICLVTTNFQTKSMSSMVSDTSCTFPSGDGIFWKHWIQTKDGQCGSPLVSTRDGFIVGIHSASNFTNTNNYFTSVPKNFMELLTIQEAQQWVSGWRLNADSVLWGGHKVFMVKPEEPFQPVKEATQL [N193I]	–	0.0503	–	–	–	–	0.0944	0.0671	0.0706	–	0.0675	–	0.0654	0.0309
MGESLFKGPRDYNPISSSICHLTNESDGHTTSLYGIGFGPFIITNKHLFRRNNGTLVVQSLHGVFKVKDTTTLQQHLVDGRDMIIIRMPKDFPPFPQKLKFREPQREERICLVTTNFQTKSMSSMVSDTSCTFPSGDGIFWKHWIQTKDGQCGSPLVSTRDGFIVGIHSASNFTNTNNYFTSVPKNCMELLTNQEAQQWVSGWRLNADSVLWGGHKVFMVKPEEPFQPVKEATQL [F187C]	–	–	–	0.0705	0.13	–	–	–	–	–	0.0647	–	0.0596	–
